Data reported in PubChem BioAssay AID485360 (National Center for Advancing Translational Sciences (NCATS), 2010).
Hit rate of the full screen: of about 230,000 compounds, about 1,500 (0.65%) were called active. Inconclusive results, whose numbers are uncertain, are shown with a selection of clear calls. The call rests on the fitted dose curve; in most records, active means well fitted inhibition curve with a large enough effect; inconclusive means small, poorly fitted or top-dose-only effect; inactive means no such curve, though single readings can be large or run the other way. Where the call is inconclusive, the potency comes from a doubtful curve fit.

The compounds below were run against Lethal(3)malignant brain tumor-like protein 1 (Homo sapiens) (UniProt Q9Y468) (assay: qHTS Assay for the Inhibitors of L3MBTL1). Settings: AlphaScreen L3MBTL1–H3K9me1 peptide binding; activity, negative = inhibition: at 57.1 µM (top of the series).
UniProt Q9Y468, sequence (Q9Y468 whole entry, looked up): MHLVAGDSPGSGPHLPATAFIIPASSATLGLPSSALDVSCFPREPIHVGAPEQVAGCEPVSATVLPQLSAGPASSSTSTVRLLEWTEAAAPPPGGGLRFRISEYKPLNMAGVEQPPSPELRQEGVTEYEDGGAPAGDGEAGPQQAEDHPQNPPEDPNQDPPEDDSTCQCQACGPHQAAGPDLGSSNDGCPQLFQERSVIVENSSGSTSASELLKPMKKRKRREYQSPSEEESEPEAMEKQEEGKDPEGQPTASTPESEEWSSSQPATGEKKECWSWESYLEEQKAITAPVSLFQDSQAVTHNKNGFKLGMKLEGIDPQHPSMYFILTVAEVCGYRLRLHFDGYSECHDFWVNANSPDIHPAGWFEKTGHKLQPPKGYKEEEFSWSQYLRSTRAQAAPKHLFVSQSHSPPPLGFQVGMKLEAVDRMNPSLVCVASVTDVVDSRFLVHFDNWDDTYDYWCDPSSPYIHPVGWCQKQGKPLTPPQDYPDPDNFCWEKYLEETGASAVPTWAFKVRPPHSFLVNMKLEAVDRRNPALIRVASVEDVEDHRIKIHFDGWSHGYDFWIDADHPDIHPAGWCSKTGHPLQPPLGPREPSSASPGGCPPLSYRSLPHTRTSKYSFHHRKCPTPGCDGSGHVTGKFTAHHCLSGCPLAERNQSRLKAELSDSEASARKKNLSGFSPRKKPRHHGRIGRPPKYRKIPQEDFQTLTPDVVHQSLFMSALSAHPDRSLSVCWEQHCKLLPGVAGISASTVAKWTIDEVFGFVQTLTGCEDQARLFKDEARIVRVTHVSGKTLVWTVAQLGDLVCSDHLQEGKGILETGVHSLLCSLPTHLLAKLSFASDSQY
How it was run: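 L3MBTL1 50 nM + b-AHA-H3(1-15)K9me1 75 nM, 30 min RT; compound added, 30 min RT; streptavidin donor/Ni-chelate acceptor beads 10 ug/mL each final, 30 min RT dark; AlphaScreen read.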
Further: nearly all actives have a fitted effect of over 60% in size.
On the % scale 0 is the no-effect control and ±100 the full control effect; potency means the concentration at half of the fitted maximal effect; tags describe the fitted curve by direction and shape.

Structure (SMILES)	Potency	activity, negative = inhibition
CSc1ncccc1C(=O)OCc1ccc([N+](=O)[O-])cc1	inconclusive: 10 µM [inhibitor, partial curve, poor fit]	–
O=C(NCc1ccc2c(c1)OCO2)c1ccc(C2SCC(=O)N2Cc2ccco2)cc1 (centres undefined)	inconclusive: 31.6 µM [inhibitor, partial curve]	–
COc1ccc(Cl)cc1C(=O)OCC(=O)Nc1sccc1C(N)=O	inconclusive: 25.1 µM [inhibitor, single point]	–
O=C(COC(=O)/C=C/c1ccco1)Nc1cccc([N+](=O)[O-])c1	inconclusive: 31.6 µM [inhibitor, partial curve]	–
Nc1cccn2c(-c3ccc(Cl)c(Cl)c3)cnc12	inconclusive: 10 µM [inhibitor, partial curve, poor fit]	–
CC(C)N=c1scc(-c2cccs2)n1/N=C/c1ccc(O)c(O)c1O	inconclusive: 35.5 µM [inhibitor, single point]	–
NCCCn1c(C(=O)c2cc(Cl)c(N)c(Cl)c2)c2ccccc2[n+]1[O-]	inconclusive: 7.08 µM [inhibitor, single point]	–
N#Cc1nc(Cc2ccccc2)oc1N1CCN(c2ccccc2)CC1	inconclusive: 31.6 µM [inhibitor, partial curve]	–
Cc1sc(-c2ccccn2)nc1OC(=O)c1ccc(Cl)c(Cl)c1	–	inactive: 4.39%
Cc1ccc(C(c2nnnn2C(C)(C)C)N2CCC(C)CC2)cc1 (centres undefined)	–	inactive: -7.28%
Cc1cnc(C(=O)NCC(=O)Nc2ccccc2Br)cn1	inconclusive: 25.1 µM [inhibitor, single point]	–
COc1ccc2c(c1)c1ncn(Cc3ccco3)c(=O)c1n2C	–	inactive: 13.7%
O=C(CNC(=O)c1ccco1)NCC(=O)OC(C(=O)c1ccccc1)c1ccc(Cl)cc1 (centres undefined)	inconclusive: 4.47 µM [inhibitor, single point]	–
CCN(CC(=O)Nc1ccc(NC(C)=O)cc1)C(=O)c1ccccc1SCC(=O)N1CCCC1	–	inactive: 5.37%
CC(=O)N/C(=C/c1ccccc1)C(=O)N1CCCCC1	inconclusive: 0.794 µM [inhibitor, single point]	–
CCc1ccc(NC(=S)Nc2cccc3cnccc23)cc1	inconclusive: 8.91 µM [inhibitor, full curve]	–
COc1ccc(-c2cc(C(=O)Nc3ccc(S(=O)(=O)Nc4onc(C)c4C)cc3)c3ccccc3n2)cc1OC	–	inactive: -10.6%
N=C1S/C(=C\c2ccc(-c3cccc(Cl)c3)o2)C(=O)N1c1nccs1	inconclusive: 3.98 µM [inhibitor, full curve, poor fit]	–
Cc1ccc(N/N=C2\CC(=O)c3ccccc32)cc1Cl	inconclusive: 2 µM [inhibitor, partial curve]	–
